These compounds were tested on A2780V-CSC cells. Conditions: read-out: metabolic activity IC50, A2780V-CSC; 72 h incubation; mean ± SD of two or three independent experiments.
“Bis[1,3-diethyl-4,5-diphenyl-1H-imidazol-2-ylidene]diiodidogold(III) Hexafluorophosphate [Complex 11]” was tested, and the IC50 was 1.07 ± 0.21 µM.
CCn1c(-c2ccccc2)c(-c2ccccc2)n(CC)[c]1=[Au+]([Cl])([Cl])=[c]1n(CC)c(-c2ccccc2)c(-c2ccccc2)n1CC.F[P-](F)(F)(F)(F)F [Complex 9, Bis[1,3-diethyl-4,5-diphenyl-1H-imidazol-2-yliden]dichloridogold(III) Hexafluorophosphate] was tested, and the IC50 was 0.63 ± 0.06 µM.
With “Bromido[1,3-diethyl-4,5-diphenyl-1H-imidazol-2-ylidene]gold(I) [Complex 6]” the IC50 was 8.28 ± 0.74 µM.
With “Iodido[1,3-diethyl-4,5-diphenyl-1H-imidazol-2-ylidene]gold(I) [Complex 7]” the IC50 was 1.65 ± 1.23 µM.
Compound CCn1c(-c2ccccc2)c(-c2ccccc2)n(CC)[c]1=[Au+]([Br])([Br])=[c]1n(CC)c(-c2ccccc2)c(-c2ccccc2)n1CC.F[P-](F)(F)(F)(F)F [Complex 10, Bis[1,3-diethyl-4,5-diphenyl-1H-imidazol-2-ylidene]dibromidogold(III) Hexafluorophosphate] has an IC50 of 0.76 ± 0.13 µM.
“Chlorido[1,3-diethyl-4,5-diphenyl-1H-imidazol-2-ylidene]gold(I) [Complex 5]” showed an IC50 of 9.71 ± 1.2 µM.
